# Reference: ChEMBL document CHEMBL1201862, “PubChem BioAssay data set” (2004)
# Test system: NCI-H322M
# Assay: inhibition of tumour cell growth, NCI panel, 48 h
row,Structure (SMILES),GI50
1,CCOC(=O)/C(=C\c1cccs1)P(=O)(OCC)OCC,inactive: 27.9 µM
2,O=C(O)c1ccc(Nc2cnc3ccc(C(F)(F)F)cc3n2)cc1,inactive: 17.3 µM
3,O=C(Cn1c(=O)oc2ccc(C(=O)c3ccccc3Cl)cc21)c1ccc([N+](=O)[O-])cc1,inactive: 42.6 µM
4,COc1ccc(C(=O)OCC2OC(n3cnc4c(=S)nc[nH]c43)C(OC(=O)c3ccc(OC)cc3)C2OC(=O)c2ccc(OC)cc2)cc1 (stereo not given),inactive: 39.4 µM
5,O=C1C=CC(=O)N1c1ccc(I)cc1,inactive: 19.1 µM
6,CC(=O)c1csc2c1C(=O)c1scc(C(C)=O)c1C2=O,inactive: 1.45 µM
7,CCOC(=O)c1cc(C#N)[nH]c1-c1ccsc1,inactive: 33.9 µM
8,O=C(/C=C/c1ccc(OCCCOc2ccc(/C=C/C(=O)c3ccc(Cl)cc3)cc2)cc1)c1ccc(Cl)cc1,inactive: > 100 µM
9,C=CCC12CCC(=O)C=C1CCC1(C2)OCCO1 (stereo not given),inactive: > 100 µM
10,CC(C)=CCc1c(O)c(CC=C(C)C)c2oc(-c3ccc(O)cc3O)c(CC=C(C)C)c(=O)c2c1O,inactive: 12.8 µM
11,C/C(=N\Nc1nc2cc(C)ccc2s1)c1ccccn1,active: 0.662 µM
12,COC(=O)c1ccc(C(=O)OC)c2nc3cc(Cl)ccc3nc12,inactive: 86.1 µM
13,OC(c1ccccn1)C1CNc2ccccc21 (stereo not given),inactive: > 100 µM
14,Cc1ccc(/C=C2\CCC/C(=C\c3ccc(O)c(CN4CCCCC4)c3)C2=O)cc1,inactive: 11.9 µM
15,COc1ccc(C(=O)CC(=O)C(=O)Nc2ccc(C)c(C)c2)cc1,inactive: > 100 µM
16,COC(=O)C#Cc1ccc([N+](=O)[O-])cc1,inactive: 3.61 µM
17,CN(C)C(=S)/N=c1\ssc(=S)n1-c1ccccc1,inactive: 42.1 µM
18,O=C1C2ON3c4ccccc4C(=O)C3(c3ccccc3)C2C(=O)N1c1ccccc1 (stereo not given),inactive: > 100 µM
19,COC(=O)[C@H]1[C@@H](O)[C@@]2(O)c3c(OC)cc(OC)cc3O[C@@]2(c2ccc3c(c2)OCO3)[C@@H]1c1ccccc1,active: 0.00857 µM
20,CC(=O)OC1CCC2C3CCc4c(C)ccc(OS(=O)(=O)c5ccccc5)c4C3CCC12C (stereo not given),inactive: 22.6 µM
21,CC1(C)CCC(=O)c2c(O)ccc(O)c21,inactive: > 100 µM
22,O=C(OC1CN2CCC1CC2)N(c1ccccc1)c1ccccc1 (stereo not given),inactive: > 100 µM
23,OC[C@H]1O[C@@H](Oc2cc(O)cc(/C=C/c3ccc(O)cc3)c2)[C@H](O)[C@@H](O)[C@@H]1O [PICEID],inactive: > 100 µM

row,Structure (SMILES),GI50
1,CC(C)=CC(O)C/C(C)=C/CC/C(C)=C/CCC1(C)C(CCCO)/C(=C(/C)C=O)CCC1(C)O (stereo not given),inactive: > 100 µM
2,CC1(O)C(C)(O)C2(C)O[Te]3(OC12C)OC1(C)C(C)(O)C(C)(O)C1(C)O3 (stereo not given),inactive: 83.8 µM
3,COC(=O)NCCc1n[nH]c2c1C(=O)C=C(Nc1ccccc1OC)C2=O,inactive: 27.2 µM
4,O=C1Nc2cc(F)ccc2C1=O,inactive: > 100 µM
5,C/C(=N\Oc1cc(Cl)ncn1)c1ccccn1,inactive: 40.6 µM
6,COc1cccc(CCNc2c(C#N)c3nc4ccccc4n3c3ccccc23)c1,inactive: 1.95 µM
7,Cc1ccc(S(=O)(=O)OCC23CCC(CC2)C2CC23)cc1 (stereo not given),inactive: 95.3 µM
8,C[C@H](CCC(=O)O)[C@H]1CC[C@H]2[C@@H]3[C@H](O)C[C@@H]4C[C@H](O)CC[C@]4(C)[C@H]3C[C@H](O)[C@]12C,inactive: > 100 µM
9,CC(C)(C)c1cc(C(O)(C(F)(F)F)C(F)(F)F)c2c(c1)C(C(F)(F)F)(C(F)(F)F)OC(c1ccccc1)(C(C)(C)C)N2 (stereo not given),inactive: 9.25 µM
10,COc1c2ccoc2c(OC)c2oc(=O)ccc12 [ISOPIMPINELLIN],inactive: > 100 µM
11,CCOC(=O)C(NC(=O)CC)(Nc1cc(C)on1)C(F)(F)F (stereo not given),inactive: > 100 µM
12,O=C(Cn1cc(-c2ccccc2)nn1)NC1CCCC1,inactive: > 100 µM
13,C=C1C(=O)OC2C1CC(O)/C(C)=C\CCC1(C)OC21 (stereo not given),inactive: 61.5 µM
14,O=C1C(=C(C(=O)c2ccccc2)C(=O)c2ccccc2)OC(c2ccccc2)=C1C(=O)c1ccccc1,inactive: 7.82 µM
15,NS(=O)(=O)c1cc(S(N)(=O)=O)c(NC(=O)N(c2ccccc2)c2ccccc2)c(Cl)c1Cl,inactive: 26.6 µM
16,N#C/C(N)=C(C#N)/N=C/N,inactive: > 100 µM
17,CC1(C)N=C(N)N=C(N)N1c1cccc(Cl)c1,inactive: 20.9 µM
18,CC(=O)OCC1OC(n2c(N)c(C#N)c(-c3ccc(C)cc3)c(C#N)c2=S)C(OC(C)=O)C(OC(C)=O)C1OC(C)=O (stereo not given),inactive: 16 µM
19,COc1cccc(C2c3cc4c(cc3OC(C)(O)C2C)OCO4)c1O (stereo not given),inactive: 4.74 µM
20,CC(=O)C1C(=O)C(C(C)=O)C2C3C=CC(C3)C12 (stereo not given),inactive: > 100 µM
21,CC1CN1P1(N2CC2C)=NP(N2CC2C)(N2CC2C)=NP(N2CC2C)(N2CC2C)=N1 (stereo not given),inactive: > 50 µM
22,COc1ccc(OC)c([N+](=O)[O-])c1-c1nc2sc(Cl)cn2c1/C=N/N=C(N)N,inactive: 19.8 µM

#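 Growth conditions: 96-well plates. Treatment: test compound, 48 hours, 5 concentrations. Analysis: linear interpolation between bracketing concentrations; unreached endpoints set to highest concentration. Abbreviation: GI50, concentration required for 50% inhibition of growth.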 Calls of active or inactive are those of the source. No stated cut-off is given here; in the data, active = GI50 up to about 1.1 µM and inactive = higher.
